This note sets out measurements from the supplement of paper PMC10441789.

This is one part of the list. Antibody binding of pooled human sera (four to six donors per pool; dilution not stated) to peptides of the Trypanosoma cruzi antigen TSSA on microarrays. Quantile-normalised fluorescence in arbitrary units, mean of duplicate arrays; higher = more binding. No active / inactive call. The uninfected pools are read here as the healthy donors of the same country. The strongest signals lie near the top of the scale (about 60,000).

The subject of this experiment is pooled sera of chronic Chagas disease patients, Argentina. The experiment can be described thus: antibody binding signal (normalised fluorescence) (arbitrary fluorescence units); higher = stronger serum antibody binding to peptide. The protocol: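 Microarray of 15-residue peptides over residues 30-55 of Trypanosoma cruzi TSSAII, each with 1 to 10 substitutions at naturally variable positions, probed with one serum pool per country.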
The sequence KKTAAGGAPSQPGAS had an antibody binding signal of 191.

In turn, KKAATGEAPSPPGAS returned an antibody binding signal of 5950.

In turn, GTENKAAAGETPSQS came in with an antibody binding signal of 39000.

On to TDNKTATGGTPSQSG, for which the antibody binding signal was 422.

As to NKAATGGAPSQSGAS, the antibody binding signal amounted to 728.

Take GTDKKAAAGGAPSQS: the antibody binding signal amounted to 243.

DNKPAAGETPSQSGA had an antibody binding signal of 268.

For the sequence TENKTATGEAPSPPG, the antibody binding signal stood at 26000.

In the case of GKDKKAATGETPSPS, the antibody binding signal amounted to 2400.

As for SGKEKKPATGEAPSP, the antibody binding signal was found to be 46400.

In turn, STPPSGKDNKTAAGE returned an antibody binding signal of 33900.

The sequence GTDNKTAAGETPSQS yielded an antibody binding signal of 166.

In turn, GTDNKAAAGETPSQS registered an antibody binding signal of 177.

In turn, SGTDNKPATGEAPSP displayed an antibody binding signal of 43700.

Regarding DKKTATGGTPSPSGA, the antibody binding signal came out at 579.

Take KEKKAATGGAPSQPG: the antibody binding signal came to 525.

On to PSGTENKPAAGEAPS, for which the antibody binding signal was determined as 50300.

Sequence KENKAATGGAPSQPG registered an antibody binding signal of 315.

In turn, TSSTPPSGKDKKAAT showed an antibody binding signal of 24200.

Sequence KENKAATGEAPSPSG registered an antibody binding signal of 24400.

For KPAAGETPSPPGASS, the antibody binding signal turned out to be 325.

Take GKDNKTATGEAPSQS: the antibody binding signal came to 16000.

Sequence EKKTATGETPSPPGA showed an antibody binding signal of 458.

In turn, GTEKKAATGEAPSPP had an antibody binding signal of 22800.

In turn, GTDNKPATGEAPSPP returned an antibody binding signal of 44800.

KDNKAAAGGTPSPSG returned an antibody binding signal of 225.

The sequence TPPSGKENKAATGGT gave an antibody binding signal of 9700.

Sequence GTDKKPAAGEAPSPS came in with an antibody binding signal of 537.

KEKKPAAGEAPSPSG: the antibody binding signal was determined as 199.

The sequence TENKAATGGAPSQPG had an antibody binding signal of 32000.

Sequence NKPAAGGTPSPSGAS yielded an antibody binding signal of 312.

For the sequence STPPSGKEKKAATGG, the antibody binding signal stood at 13700.

On to EKKAATGGTPSPSGA, for which the antibody binding signal was 895.

Sequence ENKPAAGGAPSQPGA showed an antibody binding signal of 544.

Turning to PPSGTDNKPATGETP, the antibody binding signal was 41900.

For the sequence GTENKTATGGTPSQS, the antibody binding signal stood at 26200.

Turning to GKEKKTATGGAPSPP, the antibody binding signal worked out at 2980.

On to NKAAAGGTPSQSGAS, for which the antibody binding signal was found to be 460.

SGKDNKPATGEAPSP displayed an antibody binding signal of 43300.

The sequence PSGKDKKTATGETPS showed an antibody binding signal of 2060.
